Positions count from the first letter of the chain named. The list shows a part of the results.
T1: RBFOX1 RRM (Homo sapiens, UniProt Q9NWB1 109-208)
T1 sequence: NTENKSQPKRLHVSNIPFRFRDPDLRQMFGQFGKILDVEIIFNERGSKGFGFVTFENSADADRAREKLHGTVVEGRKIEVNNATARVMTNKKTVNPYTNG

B1: UCUAUAG (DNA:RNA)
RNA: GGGAGACCGGAAUUCAGAUUGUCCUCUAUAGUUAAAUCCCGUCGUAGCCACCA
DNA 1: CAATCTGAATTCCGGTCTCCC
DNA 2: TGGTGGCTACGACGGGATT
B2: GUAUCCU (DNA:RNA)
RNA: GGGAGACCGGAAUUCAGAUUGUCCGUAUCCUUUAAAUCCCGUCGUAGCCACCA
DNA 1: CAATCTGAATTCCGGTCTCCC
DNA 2: TGGTGGCTACGACGGGATT
B3: UCUAUAU (DNA:RNA)
RNA: B1 RNA with G31U
DNA 1: CAATCTGAATTCCGGTCTCCC
DNA 2: TGGTGGCTACGACGGGATT
B4: ACCUCAU (DNA:RNA)
RNA: B2 RNA with G25A, U26C, A27C, C30A
DNA 1: CAATCTGAATTCCGGTCTCCC
DNA 2: TGGTGGCTACGACGGGATT
B5: AACUGCC (DNA:RNA)
RNA: B2 RNA with G25A, U26A, A27C, C29G, U31C
DNA 1: CAATCTGAATTCCGGTCTCCC
DNA 2: TGGTGGCTACGACGGGATT
B6: UUGUCCU (DNA:RNA)
RNA: B2 RNA with G25U, A27G
DNA 1: CAATCTGAATTCCGGTCTCCC
DNA 2: TGGTGGCTACGACGGGATT
B7: AGCGCCG (DNA:RNA)
RNA: B2 RNA with G25A, U26G, A27C, U28G, U31G
DNA 1: CAATCTGAATTCCGGTCTCCC
DNA 2: TGGTGGCTACGACGGGATT
B8: GAGUAGA (DNA:RNA)
RNA: B2 RNA with U26A, A27G, C29A, C30G, U31A
DNA 1: CAATCTGAATTCCGGTCTCCC
DNA 2: TGGTGGCTACGACGGGATT
B9: UCUAAAU (DNA:RNA)
RNA: B1 RNA with U29A, G31U
DNA 1: CAATCTGAATTCCGGTCTCCC
DNA 2: TGGTGGCTACGACGGGATT
B10: CGACAAU (DNA:RNA)
RNA: B2 RNA with G25C, U26G, U28C, C29A, C30A
DNA 1: CAATCTGAATTCCGGTCTCCC
DNA 2: TGGTGGCTACGACGGGATT
B11: AGGGAUA (DNA:RNA)
RNA: GGGAGACCGGAAUUCAGAUUGUCCAGGGAUAUUAAAUCCCGUCGUAGCCACCA
DNA 1: CAATCTGAATTCCGGTCTCCC
DNA 2: TGGTGGCTACGACGGGATT
B12: CGAUUUG (DNA:RNA)
RNA: B11 RNA with A25C, G27A, G28U, A29U, A31G
DNA 1: CAATCTGAATTCCGGTCTCCC
DNA 2: TGGTGGCTACGACGGGATT
B13: GCAAUUG (DNA:RNA)
RNA: B1 RNA with U25G, U27A, A30U
DNA 1: CAATCTGAATTCCGGTCTCCC
DNA 2: TGGTGGCTACGACGGGATT
B14: AAAGUUC (DNA:RNA)
RNA: B11 RNA with G26A, G27A, A29U, A31C
DNA 1: CAATCTGAATTCCGGTCTCCC
DNA 2: TGGTGGCTACGACGGGATT
B15: UGGUUAG (DNA:RNA)
RNA: B1 RNA with C26G, U27G, A28U
DNA 1: CAATCTGAATTCCGGTCTCCC
DNA 2: TGGTGGCTACGACGGGATT
B16: AGGAUUA (DNA:RNA)
RNA: B11 RNA with G28A, A29U
DNA 1: CAATCTGAATTCCGGTCTCCC
DNA 2: TGGTGGCTACGACGGGATT
B17: GCUGUUG (DNA:RNA)
RNA: B1 RNA with U25G, A28G, A30U
DNA 1: CAATCTGAATTCCGGTCTCCC
DNA 2: TGGTGGCTACGACGGGATT
B18: CCAUGAC (DNA:RNA)
RNA: B2 RNA with G25C, U26C, C29G, C30A, U31C
DNA 1: CAATCTGAATTCCGGTCTCCC
DNA 2: TGGTGGCTACGACGGGATT
B19: ACCCGUC (DNA:RNA)
RNA: B11 RNA with G26C, G27C, G28C, A29G, A31C
DNA 1: CAATCTGAATTCCGGTCTCCC
DNA 2: TGGTGGCTACGACGGGATT
B20: CGGACAA (DNA:RNA)
RNA: B11 RNA with A25C, G28A, A29C, U30A
DNA 1: CAATCTGAATTCCGGTCTCCC
DNA 2: TGGTGGCTACGACGGGATT
B21: UGGGCUG (DNA:RNA)
RNA: B11 RNA with A25U, A29C, A31G
DNA 1: CAATCTGAATTCCGGTCTCCC
DNA 2: TGGTGGCTACGACGGGATT
B22: UACUGGU (DNA:RNA)
RNA: B2 RNA with G25U, U26A, A27C, C29G, C30G
DNA 1: CAATCTGAATTCCGGTCTCCC
DNA 2: TGGTGGCTACGACGGGATT
B23: GAUGAAG (DNA:RNA)
RNA: B1 RNA with U25G, C26A, A28G, U29A
DNA 1: CAATCTGAATTCCGGTCTCCC
DNA 2: TGGTGGCTACGACGGGATT
B24: CCCUACG (DNA:RNA)
RNA: B2 RNA with G25C, U26C, A27C, C29A, U31G
DNA 1: CAATCTGAATTCCGGTCTCCC
DNA 2: TGGTGGCTACGACGGGATT
B25: GGCAACG (DNA:RNA)
RNA: B11 RNA with A25G, G27C, G28A, U30C, A31G
DNA 1: CAATCTGAATTCCGGTCTCCC
DNA 2: TGGTGGCTACGACGGGATT
B26: GUAUACU (DNA:RNA)
RNA: B2 RNA with C29A
DNA 1: CAATCTGAATTCCGGTCTCCC
DNA 2: TGGTGGCTACGACGGGATT
B27: AAAUUUC (DNA:RNA)
RNA: B11 RNA with G26A, G27A, G28U, A29U, A31C
DNA 1: CAATCTGAATTCCGGTCTCCC
DNA 2: TGGTGGCTACGACGGGATT
B28: GCGCGUU (DNA:RNA)
RNA: B11 RNA with A25G, G26C, G28C, A29G, A31U
DNA 1: CAATCTGAATTCCGGTCTCCC
DNA 2: TGGTGGCTACGACGGGATT
B29: AGUAAAU (DNA:RNA)
RNA: B11 RNA with G27U, G28A, U30A, A31U
DNA 1: CAATCTGAATTCCGGTCTCCC
DNA 2: TGGTGGCTACGACGGGATT
B30: UUACCAA (DNA:RNA)
RNA: B2 RNA with G25U, U28C, C30A, U31A
DNA 1: CAATCTGAATTCCGGTCTCCC
DNA 2: TGGTGGCTACGACGGGATT
B31: UAUGUUG (DNA:RNA)
RNA: B1 RNA with C26A, A28G, A30U
DNA 1: CAATCTGAATTCCGGTCTCCC
DNA 2: TGGTGGCTACGACGGGATT

Each binder was assayed against T1, RBFOX1 RRM (assay: EMSA; HiTS-Eq, 1 nM pool, 10 min; buffer printed only for the single-RNA assays: 10 mM Tris pH 7.5, 150 mM NaCl, 3.4 mM EDTA, 0.001% NP-40, 30 C). Settings: tags: His6 N-terminal (pET28a); label: 5' 32P.
Procedure, shortened: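 A pool of RNA with 7 randomized nucleotides, 5′-radiolabelled and with DNA-annealed flanks, was equilibrated at 1 nM for 10 min in 50 µL with purified RbFox RRM, wild type or mutant, across increasing protein concentrations. Free RNA was separated by 8% native PAGE, excised, reverse-transcribed, barcoded by PCR and sequenced. Relative association constants were obtained from read-count changes of each RNA species versus the control reaction and normalised to the cognate motif.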
B1 was tested, and the binding signal was 0.00762 KA relative to UGCAUGU.
For B2, the binding signal was 0.00994 KA relative to UGCAUGU.
In the case of B3, the binding signal is reported as 0.00154 KA relative to UGCAUGU.
B4 was tested, and the binding signal was 0.00153 KA relative to UGCAUGU.
For B5, the binding signal was 0.00713 KA relative to UGCAUGU.
For B6, the binding signal was 0.0126 KA relative to UGCAUGU.
B7 was tested, and the binding signal was 0.00843 KA relative to UGCAUGU.
For B8, the binding signal was 0.0139 KA relative to UGCAUGU.
B9 was tested, and the binding signal was 0.0034 KA relative to UGCAUGU.
With B10 the binding signal was 0.00242 KA relative to UGCAUGU.
In the case of B11, the binding signal is reported as 0.0168 KA relative to UGCAUGU.
In the case of B12, the binding signal is reported as 0.0154 KA relative to UGCAUGU.
With B13 the binding signal was 0.0136 KA relative to UGCAUGU.
B14 was tested, and the binding signal was 0.0059 KA relative to UGCAUGU.
B15 was tested, and the binding signal was 0.0202 KA relative to UGCAUGU.
For B16, the binding signal was 0.0123 KA relative to UGCAUGU.
B17 was tested, and the binding signal was 0.028 KA relative to UGCAUGU.
With B18 the binding signal was 0.0094 KA relative to UGCAUGU.
B19 was tested, and the binding signal was 0.00333 KA relative to UGCAUGU.
B20 was tested, and the binding signal was 0.0118 KA relative to UGCAUGU.
With B21 the binding signal was 0.039 KA relative to UGCAUGU.
For B22, the binding signal was 0.0165 KA relative to UGCAUGU.
With B23 the binding signal was 0.0183 KA relative to UGCAUGU.
B24 was tested, and the binding signal was 0.00111 KA relative to UGCAUGU.
B25 was tested, and the binding signal was 0.0109 KA relative to UGCAUGU.
In the case of B26, the binding signal is reported as 0.00489 KA relative to UGCAUGU.
For B27, the binding signal was 0.00597 KA relative to UGCAUGU.
For B28, the binding signal was 0.0168 KA relative to UGCAUGU.
For B29, the binding signal was 0.00281 KA relative to UGCAUGU.
In the case of B30, the binding signal is reported as 0.00232 KA relative to UGCAUGU.
B31 was tested, and the binding signal was 0.0259 KA relative to UGCAUGU.

Source: PMC9911399, “Two distinct binding modes provide the RNA-binding protein RbFox with extraordinary sequence specificity”
